Some of the results follow. Many values rest on one well or one pass, so single values are uncertain.
Key:
Experiment in all cases: cell count relative to DMSO control; melanoma cells; higher = more viable cells
Details in all cases: library dose: low library concentration; 72 h
[1] = test system: WM115
[2] = test system: WM1716
[3] = test system: WM1745
[4] = test system: WM3526
[5] = test system: WM3619
[6] = test system: WM451Lu
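Also: cell number obtained by counting DAPI-stained nuclei in high-throughput microscope images with image analysis software, screen run in 1,536-well plates.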

Row | SMILES | cell count [1] [%] | cell count [2] [%] | cell count [3] [%] | cell count [4] [%] | cell count [5] [%] | cell count [6] [%]
1 | Cn1cnc2c(F)c(Nc3ccc(Br)cc3Cl)c(C(=O)NOCCO)cc21 [selumetinib] + C[C@]1(O)C[C@@H](c2nc(-c3ccc4ccc(-c5ccccc5)nc4c3)c3c(N)nccn32)C1 [OSI906] (first compound 0.015 µM, partner dose 0.4 µM) | 102 | 106 | 76.6 | 58.6 | 81.1 | 86.4
2 | COc1cc([C@@H]2c3cc4c(cc3[C@@H](O[C@@H]3O[C@@H]5CO[C@@H](C)O[C@H]5[C@H](O)[C@H]3O)[C@H]3COC(=O)[C@H]23)OCO4)cc(OC)c1O [etoposide] + COc1ccc(Cl)c(Nc2nc3ccccc3nc2NS(=O)(=O)c2cccc(NC(=O)C(C)(C)N)c2)c1 [XL147] (first compound 0.02 µM, partner dose 0.8 µM) | 106 | 102 | 85.6 | 121 | 95.1 | 102
3 | CCN(CC)CCNC(=O)c1c(C)[nH]c(/C=C2\C(=O)Nc3ccc(F)cc32)c1C [sunitinib] + O=S(=O)(c1ccccc1)N(CC(F)(F)F)c1ccc(C(O)(C(F)(F)F)C(F)(F)F)cc1 [T0901317] (first compound 0.4 µM, partner dose 1.4 µM) | 96.5 | 112 | 82.7 | 86.2 | 105 | 91.5
4 | Cn1cnc2c(F)c(Nc3ccc(Br)cc3Cl)c(C(=O)NOCCO)cc21 [selumetinib] + CC(C)CCN1c2nc(Nc3cc(F)c(O)c(F)c3)ncc2N(C)C(=O)C1C [BID1870] (first compound 0.015 µM, partner dose 0.2 µM) | 79.3 | 91.1 | 81.5 | 89.9 | 66.3 | 93.9
5 | COc1cc([C@@H]2c3cc4c(cc3[C@@H](O[C@@H]3O[C@@H]5CO[C@@H](C)O[C@H]5[C@H](O)[C@H]3O)[C@H]3COC(=O)[C@H]23)OCO4)cc(OC)c1O [etoposide] + O=c1[nH]nc(Sc2ncc([N+](=O)[O-])s2)n1-c1ccc2c(c1)OCCO2 [BI78D3] (first compound 0.02 µM, partner dose 0.2 µM) | 77.9 | 92.9 | 85.4 | 90.6 | 84.9 | 104
6 | CCN(CC)CCNC(=O)c1c(C)[nH]c(/C=C2\C(=O)Nc3ccc(F)cc32)c1C [sunitinib] + O=C1NC(=O)/C(=C/c2ccc(-c3ccc(F)cc3O)o2)S1 [AS252424] (first compound 0.4 µM, partner dose 1 µM) | 110 | 117 | 88.2 | 75.4 | 120 | 97.5
7 | CCN(CC)CCNC(=O)c1c(C)[nH]c(/C=C2\C(=O)Nc3ccc(F)cc32)c1C [sunitinib] + Clc1ccc(Nc2nnc(Cc3ccncc3)c3ccccc23)cc1 [vatalanib] (first compound 0.4 µM, partner dose 2 µM) | 90.7 | 131 | 49.5 | 86.9 | 94.7 | 83.6
8 | Cn1cnc2c(F)c(Nc3ccc(Br)cc3Cl)c(C(=O)NOCCO)cc21 [selumetinib] + C[C@@H]1CCN(C(=O)CC#N)C[C@@H]1N(C)c1ncnc2[nH]ccc12 [CP690550] (first compound 0.015 µM, partner dose 1 µM) | 85 | 99.9 | 106 | 77 | 87.9 | 96.4
9 | COc1cc([C@@H]2c3cc4c(cc3[C@@H](O[C@@H]3O[C@@H]5CO[C@@H](C)O[C@H]5[C@H](O)[C@H]3O)[C@H]3COC(=O)[C@H]23)OCO4)cc(OC)c1O [etoposide] + COC(=O)c1sccc1S(=O)(=O)Nc1ccc(Nc2ccccc2)cc1OC [GSK0660] (first compound 0.02 µM, partner dose 1 µM) | 90 | 80.4 | 106 | 95.7 | 92.9 | 99.4
10 | Cn1cnc2c(F)c(Nc3ccc(Br)cc3Cl)c(C(=O)NOCCO)cc21 [selumetinib] + COc1cc2c(Oc3ccc4[nH]c(C)cc4c3F)ncnc2cc1OCCCN1CCCC1 [cediranib] (first compound 0.015 µM, partner dose 0.4 µM) | 91 | 108 | 69.4 | 69.2 | 97 | 120
11 | COc1cc([C@@H]2c3cc4c(cc3[C@@H](O[C@@H]3O[C@@H]5CO[C@@H](C)O[C@H]5[C@H](O)[C@H]3O)[C@H]3COC(=O)[C@H]23)OCO4)cc(OC)c1O [etoposide] + COc1cc(Nc2ncc(F)c(Nc3ccc4c(n3)NC(=O)C(C)(C)O4)n2)cc(OC)c1OC [Tamatinib] (first compound 0.02 µM, partner dose 0.4 µM) | 72.9 | 78.1 | 60 | 85.7 | 132 | 97.6
12 | CCN(CC)CCNC(=O)c1c(C)[nH]c(/C=C2\C(=O)Nc3ccc(F)cc32)c1C [sunitinib] + CCCCCCCCc1ccc(CCC(N)(CO)CO)cc1 [fingolimod] (first compound 0.4 µM, partner dose 2 µM) | 99.2 | 120 | 60.9 | 61.1 | 97.6 | 103
13 | COc1cc([C@@H]2c3cc4c(cc3[C@@H](O[C@@H]3O[C@@H]5CO[C@@H](C)O[C@H]5[C@H](O)[C@H]3O)[C@H]3COC(=O)[C@H]23)OCO4)cc(OC)c1O [etoposide] + CCCCCCCCc1ccc(CCC(N)(CO)CO)cc1 [fingolimod] (first compound 0.02 µM, partner dose 2 µM) | 80.7 | 64.8 | 75.1 | 78.8 | 65.2 | 91.2
14 | C[C@]1(O)C[C@@H](c2nc(-c3ccc4ccc(-c5ccccc5)nc4c3)c3c(N)nccn32)C1 + COc1ccc(-c2ccc3c(N4CCOCC4)nc(N4C[C@@H](C)O[C@@H](C)C4)nc3n2)cc1CO [KU0063794] (first compound 0.4 µM, partner dose 0.02 µM) | 102 | 106 | 79.6 | 68.2 | 98 | 93.8
15 | Cn1cnc2c(F)c(Nc3ccc(Br)cc3Cl)c(C(=O)NOCCO)cc21 [selumetinib] + Cn1c(Nc2ccc(C(F)(F)F)cc2)nc2cc(Oc3ccnc(-c4ncc(C(F)(F)F)[nH]4)c3)ccc21 [CHIR265] (first compound 0.015 µM, partner dose 0.08 µM) | 42.3 | 80.9 | 71.2 | 24.6 | 35.8 | 77.6
16 | C[C@]1(O)C[C@@H](c2nc(-c3ccc4ccc(-c5ccccc5)nc4c3)c3c(N)nccn32)C1 + Cn1cc(/C=C2\C(=O)Nc3cccnc32)c2ccccc21 [GW441756] (first compound 0.4 µM, partner dose 0.4 µM) | 106 | 111 | 75 | 82.5 | 90 | 120
17 | Cn1cnc2c(F)c(Nc3ccc(Br)cc3Cl)c(C(=O)NOCCO)cc21 [selumetinib] + COc1ccc(C2=N[C@@H](c3ccc(Cl)cc3)[C@@H](c3ccc(Cl)cc3)N2C(=O)N2CCNC(=O)C2)c(OC(C)C)c1 [Nutlin-3] (first compound 0.015 µM, partner dose 0.1 µM) | 91.5 | 102 | 101 | 95 | 63.4 | 100
18 | COc1cc([C@@H]2c3cc4c(cc3[C@@H](O[C@@H]3O[C@@H]5CO[C@@H](C)O[C@H]5[C@H](O)[C@H]3O)[C@H]3COC(=O)[C@H]23)OCO4)cc(OC)c1O [etoposide] + O=C(/C=C/c1cccnc1)NCCCCC1CCN(C(=O)c2ccccc2)CC1 [FK866] (first compound 0.02 µM, partner dose 0.01 µM) | 90.1 | 92.4 | 89.9 | 109 | 69.6 | 113
19 | COc1cc([C@@H]2c3cc4c(cc3[C@@H](O[C@@H]3O[C@@H]5CO[C@@H](C)O[C@H]5[C@H](O)[C@H]3O)[C@H]3COC(=O)[C@H]23)OCO4)cc(OC)c1O [etoposide] + O=C1NC(=O)/C(=C/c2ccc(-c3ccc(F)cc3O)o2)S1 [AS252424] (first compound 0.02 µM, partner dose 1 µM) | 82.6 | 92.6 | 90.4 | 90 | 107 | 129
20 | CCN(CC)CCNC(=O)c1c(C)[nH]c(/C=C2\C(=O)Nc3ccc(F)cc32)c1C [sunitinib] + COC(=O)c1sccc1S(=O)(=O)Nc1ccc(Nc2ccccc2)cc1OC [GSK0660] (first compound 0.4 µM, partner dose 1 µM) | 102 | 132 | 82.6 | 91.6 | 143 | 96.3
21 | CCN(CC)CCNC(=O)c1c(C)[nH]c(/C=C2\C(=O)Nc3ccc(F)cc32)c1C [sunitinib] + Cn1cc(/C=C2\C(=O)Nc3cccnc32)c2ccccc21 [GW441756] (first compound 0.4 µM, partner dose 0.4 µM) | 99.5 | 123 | 78.1 | 82.3 | 124 | 98.6
22 | CCN(CC)CCNC(=O)c1c(C)[nH]c(/C=C2\C(=O)Nc3ccc(F)cc32)c1C [sunitinib] + OCc1c[nH]c2ccccc12 [Indole-3-carbinol] (first compound 0.4 µM, partner dose 0.8 µM) | 98.3 | 118 | 70.8 | 64.7 | 132 | 113
23 | C[C@]1(O)C[C@@H](c2nc(-c3ccc4ccc(-c5ccccc5)nc4c3)c3c(N)nccn32)C1 + CN(NC(=O)CC(=O)NN(C)C(=S)c1ccccc1)C(=S)c1ccccc1 [STA4783] (first compound 0.4 µM, partner dose 0.006 µM) | 75.8 | 53.4 | 5.07 | 86.1 | 30.3 | 116
